The other results are listed elsewhere or left out. Sequences were assembled here from the parent chain. Values near 0.05 are background.
B1: TEV protease; numbered along this chain (parent)
chain: MGESLFKGPRDYNPISSSICHLTNESDGHTTSLYGIGFGPFIITNKHLFRRNNGTLVVQSLHGVFKVKDTTTLQQHLVDGRDMIIIRMPKDFPPFPQKLKFREPQREERICLVTTNFQTKSMSSMVSDTSCTFPSGDGIFWKHWIQTKDGQCGSPLVSTRDGFIVGIHSASNFTNTNNYFTSVPKNFMELLTNQEAQQWVSGWRLNADSVLWGGHKVFMVKPEEPFQPVKEATQL

Variants of: B1
Test: raw area under fraction-flipped curve 0-4 h after induction (AUC4h, not background-subtracted), DNA-recorder readout of cleavage of the substrate (dimensionless); higher = more cleavage of the substrate by the protease variant
Settings: temperature: 34 °C; time window: 0-4 h after rhamnose induction
Description: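 In vivo DNA recorder in E. coli TOP10(DE3) ΔrhaA at 34 °C. Each TEVp single-site mutant (parent TEVp 0) is paired with a single-site variant of the 7-mer TEVs (canonical ENLYFQ|S). The substrate sits between flexible linkers in a Bxb1-sfGFP-TEVs-SsrA fusion, so cleavage stabilises Bxb1 and speeds flipping of a recombination array, read by NGS. The value is the raw area under the fraction-flipped curve over 0-4 h after rhamnose induction (AUC4h), with ≥20 reads per time point. It is not background-subtracted; inactive controls average about 0.047.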
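Further: Bxb1 expression induced with 0.2% (w/v) L-rhamnose at OD600 near 0.5, cultures sampled hourly, flipped fraction per protease–substrate barcode pair counted by paired-end Illumina sequencing.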

Variant	area with substrate EALYFQS	area with substrate ECLYFQS	area with substrate EFLYFQS	area with substrate EILYFQS	area with substrate EKLYFQS	area with substrate EPLYFQS	area with substrate ERLYFQS	area with substrate EYLYFQS	area with substrate EDLYFQS	area with substrate EHLYFQS	area with substrate ELLYFQS	area with substrate EMLYFQS	area with substrate EQLYFQS	area with substrate ESLYFQS	area with substrate EVLYFQS	area with substrate ETLYFQS	area with substrate EWLYFQS	area with substrate EELYFQS	area with substrate EGLYFQS
D27R	0.126	0.0698	0.0973	0.09	0.0871	0.0935	0.0937	0.064											
D27Y	0.112	0.0858	0.1	0.0834	0.0809	0.0902	0.0876	0.0734	0.0938	0.0866	0.0909	0.09	0.101	0.1	0.0863				
T30A	0.181	0.143	0.101		0.109		0.112	0.11	0.135	0.111		0.111	0.118	0.103	0.0861	0.114	0.117		
T31H	0.0972	0.0827			0.12	0.136	0.0899		0.104	0.092	0.0626	0.105	0.105	0.0893	0.104	0.0951	0.0923	0.0949	0.0804
T31L	0.124	0.123				0.099	0.182	0.111	0.157		0.0756		0.156	0.122	0.114			0.126	0.122
L33E	0.109	0.0613		0.0505	0.0702	0.069	0.0677		0.0791	0.0718	0.0403	0.0805	0.0698	0.0672	0.0678	0.0689	0.115	0.0768	0.0573
G35C	0.0692	0.0558		0.0523	0.0642	0.0613	0.0492		0.0527				0.0712						
G39P	0.0374	0.0444	0.0454			0.0399	0.05	0.0455	0.0431	0.0358			0.018	0.044	0.0448	0.0293	0.0489		0.0441
F41C	0.106	0.0992	0.108	0.0887	0.0971			0.106	0.119		0.0854	0.125		0.106	0.112	0.128	0.105	0.11	0.108
F41R	0.0417	0.0462		0.0498	0.049	0.0797	0.0622	0.0509		0.0627		0.0495	0.0549	0.0516	0.0458	0.0526	0.0453		0.0694
F41S	0.0809	0.0694	0.112		0.0771	0.0848	0.0828	0.0797	0.0766	0.0954	0.0832	0.0766	0.0848	0.0499	0.0816	0.0923			0.0819
I42E	0.0334	0.0435	0.0511	0.0346	0.0443	0.0432	0.0185	0.0422		0.0445				0.0535	0.045	0.0535	0.0477	0.0299	0.0385
I42M	0.119	0.111		0.0833	0.11		0.093				0.0817	0.0815	0.133	0.132	0.0861	0.118		0.12	0.114
